The campaign covered roughly 150,000 compounds. About 540 (0.36%) showed an effect of 50% or more. The list shows a part of the results.

By % Inhibition is commonly meant the drop in the measured response relative to a control, in per cent.

The assay has as its system Plasmodium falciparum. The experiment in a line: Primary screen in NF54 nanoGlo assay, in single point, at 2uM, 72h; a lower Z score goes with more inhibition. The assay is classed as functional, Erythrocyte. Conditions: timepoint 72 hour.
On to `CCN1CCC[C@H](N2CCC(CCC(=O)OC)CC2)C1`, for which the “% Inhibition” value is listed as -5% and the Z score is 0.71.
With `CC(C)(C)[C@@H]1CN(C(=O)CCc2cncnc2)CCO1`, the “% Inhibition” value came out at 3% and the Z score is -0.35.
As to `Cc1nc(CC(=O)N[C@H]2COCC[C@@H]2OCc2ccccn2)cs1`, the “% Inhibition” value is listed as -5% and the Z score is on record as 0.96.
`CCc1nc(N[C@@H]2COC3(CCCC3)C2)ncc1C`: the “% Inhibition” value was -8% and the Z score was found to be 1.56.
Turning to `CCOC1CC(NC(=O)Cc2c(C)noc2Cl)C12CCCC2` (stereo not drawn), the “% Inhibition” value worked out at 1% and the Z score was -0.12.
For the molecule `CCN(C(=O)Nc1ccc(OCC(F)(F)F)c(C)c1)C1CCCC1`, the “% Inhibition” value turned out to be 9% and the Z score is given as -1.45.
For the molecule `O=C(Nc1ccc(C(F)(F)F)c(F)c1)c1cc(C2CC2)[nH]c(=O)c1`, the “% Inhibition” value was -14% and the Z score was determined as 1.47.
As to `Cc1c(C(=O)N(C)C[C@H]2COCCO2)cnn1-c1ncc2c(n1)-c1ccccc1CCC2`, the “% Inhibition” value is recorded as 6% and the Z score is recorded as -0.8.
For `CCc1cc(C(=O)N[C@H]2CCN(C(C)C)C2=O)[nH]n1`, the “% Inhibition” value is -3% and the Z score stood at 0.65.
As to `O=C(NCc1cccnc1)[C@]1(F)CCCN(Cc2ccc(Cl)cc2)C1`, the “% Inhibition” value was -4% and the Z score was found to be 0.72.
Regarding `CCCc1noc(-c2oc3cc(OC)ccc3c2C)n1`, the “% Inhibition” value is on record as -4% and the Z score was 0.68.
For `COc1ccc(NC(=O)CN2C(=O)N[C@@](C)(C3CCCCC3)C2=O)c(OC)c1`, the “% Inhibition” value is -1% and the Z score is 0.12.
As to `Cc1cc(C)c(CNC(=O)c2ccc3c(c2)OCCO3)c(=O)[nH]1`, the “% Inhibition” value was -1% and the Z score was 0.16.
With `Cc1ccc2c(=O)c(C(=O)N3CCOCC3)cn(CC(=O)NC3CCCCC3)c2n1`, the “% Inhibition” value is listed as -4% and the Z score is 0.6.
Take `O=C(Cn1cnc2ccccc2c1=O)Nc1nnc(C2CCCC2)s1`: the “% Inhibition” value is given as -16% and the Z score turned out to be 1.95.
For the molecule `CC(C)n1ccc(C(=O)NCc2cccc(-c3nnn[nH]3)c2)n1`, the “% Inhibition” value was -12% and the Z score is 2.21.
With `Nc1cc(N2CCN(Cc3ccc4cccc(Cl)c4n3)CC2)nc(N)n1`, the “% Inhibition” value is recorded as -9% and the Z score is reported as 1.17.
Take `CC(C)CCc1nc(N2CCCN(S(=O)(=O)c3ccc(Br)cc3)CC2)c2cnn(-c3cccc(Cl)c3)c2n1`: the “% Inhibition” value is 5% and the Z score is given as -0.71.
Consider `Cc1ccc(Cn2nc(C(=O)Nc3cc(C)ns3)ccc2=O)cc1`, for which the “% Inhibition” value is -1% and the Z score worked out at 0.14.
On to `CCn1cncc1[C@@H]1CCCCN1C(=O)Nc1cccc(OC)n1`, for which the “% Inhibition” value was -8% and the Z score was determined as 1.61.
Turning to `CCc1nc(C(C)N2CCOC(C(=O)OC)C2)oc1-c1ccccc1` (stereo not drawn), the “% Inhibition” value was -4% and the Z score is listed as 0.53.
Turning to `O=C(c1ccc2c(c1)OCO2)N(C(=O)N1CCCCC1)c1ccccc1`, the “% Inhibition” value is recorded as -8% and the Z score is 1.28.
On to `N#Cc1ccccc1-c1ccccc1C(=O)Nc1cc2c(=O)[nH]cnc2cc1F`, for which the “% Inhibition” value is recorded as -10% and the Z score was 1.51.
The matching figures for `CC1CCN(CC(=O)Nc2ncc(Cc3cccc4ccccc34)s2)CC1`: 1% and -0.09.
For `O=C(c1ccccc1)c1conc1C(=O)c1ccc(Br)cc1` the same measures were 7% and -1.04.
The matching figures for `CCC(CC)(CNC(=O)[C@@H]1COc2cc(F)ccc2C1)C(=O)O`: -4% and 0.5.
As to `COCCNC(=O)[C@H](C)NC(=O)[C@H]1CC[C@H](CNS(=O)(=O)c2ccc(F)cc2)CC1`, the “% Inhibition” value was -10% and the Z score was found to be 1.09.
`Cn1cccc1CN1CCC(CC2CC2)(c2noc(C3CCOCC3)n2)CC1`: the “% Inhibition” value is -14% and the Z score is given as 1.78.
The matching figures for `O=C(NCc1cccnc1)NCc1nccnc1-c1ccco1`: 13% and -1.69.
As for `Cc1cc(C(=O)N2CCC[C@@H]2Cc2noc(C3CCCC3)n2)n(C)n1`, the “% Inhibition” value is given as -12% and the Z score was determined as 1.56.
For `Cc1ncc(C(=O)N2CCN(C(=O)c3cnc(C)s3)[C@@H](C)C2)s1` the same measures were -11% and 1.6.
On to `C[C@@H](C1CCN(C(=O)c2cc(F)cc(Cl)c2)CC1)N1CCCC1`, for which the “% Inhibition” value is reported as -17% and the Z score is given as 1.72.
Consider `O=C(NCc1ccccn1)c1cn(-c2ccc(S(=O)(=O)N3CCCC3)cn2)cn1`, for which the “% Inhibition” value is -15% and the Z score was 2.3.
Turning to `CC(C)(C)c1ccc(NC(=O)c2cccc[n+]2[O-])cc1`, the “% Inhibition” value is on record as -24% and the Z score is given as 2.72.
For `Cn1cc(CCNC(=O)[C@@H]2COCC(=O)N2Cc2ccccc2)cn1` the same measures were -2% and 0.21.
Consider `COc1cc2c(cc1OC)CN(C(=O)CCCN1C(=O)c3ccc(C)cc3C1=O)CC2`, for which the “% Inhibition” value is reported as -4% and the Z score is 0.72.
As to `CCCc1cnc(NCCc2n[nH]c(=O)n2C)nc1`, the “% Inhibition” value came out at 5% and the Z score is listed as -0.79.
The matching figures for `CC(C)(NC(=O)C(F)(F)F)C(=O)NCc1cncc(F)c1`: -5% and 0.79.
In the case of `CCn1c(=O)c(N2CCC(C(=O)N3CCN(c4cccc(OC)c4)CC3)CC2)nc2ccccc21`, the “% Inhibition” value is listed as -2% and the Z score was determined as 0.42.
Turning to `O=C(Cn1nc(-c2ccc(F)cc2)c2cnc3ccccc3c21)Nc1ccccc1F`, the “% Inhibition” value is given as -26% and the Z score is on record as 2.33.
For the molecule `COc1cccc(-c2nnc(N3CCN4CCCC[C@H]4C3)n2Cc2ccccc2)c1OC`, the “% Inhibition” value is recorded as 11% and the Z score is -1.51.
Take `Cc1csc(C(C)NC(C)c2nc(C(C)C)no2)n1` (stereo not drawn): the “% Inhibition” value is reported as -16% and the Z score is reported as 2.54.
With `Cn1cc(CNC(=O)Nc2nnc(CCN3CCOCC3)s2)cn1`, the “% Inhibition” value was -22% and the Z score is listed as 3.26.
On to `Cc1n[nH]c(C)c1CC(=O)Nc1cnn([C@@H](C)C2CC2)c1`, for which the “% Inhibition” value is on record as -7% and the Z score was found to be 1.23.
Regarding `Cc1nc(-n2nc(C)c(CC(=O)N3CCOCC3)c2O)sc1C`, the “% Inhibition” value worked out at 2% and the Z score was -0.22.
Consider `COCCn1ccc(NC(=O)C(C)N2C(C)CCC2C)n1` (stereo not drawn), for which the “% Inhibition” value is given as 2% and the Z score is listed as -0.19.
The matching figures for `c1ccc(-c2noc(CN3CCC[C@@H]3Cn3cncn3)n2)nc1`: 6% and -0.89.
`Cc1[nH]ccc1C(=O)Nc1ccc(N(C)C)c(Cl)c1`: the “% Inhibition” value is -15% and the Z score worked out at 1.42.
On to `COc1cccc(C(=O)N2CCN(C(=O)Nc3ccc(S(=O)(=O)N(C)C)s3)CC2)c1`, for which the “% Inhibition” value is reported as -17% and the Z score stood at 2.72.
Take `CC1CC(C)CN(CC(C)NC(=O)Cc2cc(-c3ccccc3)on2)C1` (stereo not drawn): the “% Inhibition” value was 1% and the Z score is on record as -0.12.
Turning to `CN(C)C(=O)c1ccc(-n2ccnc2-c2ccc(C(=O)O)s2)s1`, the “% Inhibition” value is on record as -11% and the Z score turned out to be 1.82.
As to `Cc1cc(C(=O)O)nc(N2CCN(C(c3ccccc3)c3ccccc3)CC2)n1`, the “% Inhibition” value is -22% and the Z score came out at 2.57.
For `C[C@H]1CCCN(S(=O)(=O)NCc2cccs2)C1`, the “% Inhibition” value is reported as -8% and the Z score is reported as 1.24.
For `CN(C[C@H]1CCCOC1)C(=O)Nc1ccc(F)cn1` the same measures were -1% and 0.11.
For the molecule `COC(C)CS(=O)(=O)NC(c1nccs1)C1CC1` (stereo not drawn), the “% Inhibition” value is listed as 1% and the Z score is recorded as -0.21.
Turning to `COc1cccc(CC(=O)N2CC(c3nc(C)no3)C2)c1`, the “% Inhibition” value is on record as -13% and the Z score came out at 2.5.
For `Cc1nn(C)c2nc(NCC3(C)COC3)sc12` the same measures were 0% and 0.06.
As for `CCCN1C(=O)[C@@H]2CC[C@H]1CN(C(=O)c1cnn(CCC)c1C)C2`, the “% Inhibition” value came out at 14% and the Z score is given as -1.62.
The matching figures for `Cc1cnc(N(C)Cc2ncccn2)nc1`: -5% and 0.82.
For `Cn1cc(S(=O)(=O)N2C[C@]3(C)CC[C@@H](C3)C2(C)C)cn1` the same measures were -8% and 1.09.
For `COc1ccc(N2CCN(C(=O)c3cc(NC(C)=O)c4c(c3)ncn4CCc3ccccn3)CC2)cc1` the same measures were 1% and -0.11.
As for `O=C(CCn1cccn1)N1CCC[C@@]2(CCC(=O)N(Cc3ccncc3)C2)C1`, the “% Inhibition” value was -12% and the Z score is given as 2.31.
For `N[C@@H]1c2ccccc2C[C@H]1NS(=O)(=O)C1CC1` the same measures were -3% and 0.65.
The matching figures for `CC(C)[C@H](CNC(=O)N1CCOC2(CCC2)C1)c1ccnn1C`: -1% and 0.06.
`CCn1cnnc1CN1CCC(CNC(=O)[C@@H]2CCc3ccccc32)CC1`: the “% Inhibition” value amounted to 7% and the Z score was -1.06.
Turning to `Cc1cnc(C(=O)NC[C@@H](c2ccco2)N2CCCC2)cn1`, the “% Inhibition” value is given as -7% and the Z score came out at 1.41.
For the molecule `C[C@H]1CN(c2ncnc3[nH]ccc23)CC(=O)N1`, the “% Inhibition” value is -2% and the Z score is 0.29.
The matching figures for `CCOc1cc(CCCNC(=O)C(C)(C)C#N)ccc1OC`: -5% and 0.45.
Turning to `Cc1ccc(C2C(C(=O)N3CCC(C)CC3)CCC(=O)N2C)cc1` (stereo not drawn), the “% Inhibition” value came out at 36% and the Z score is -4.85.
As for `CNC(=O)CCC(C)(C)NC(=O)Nc1ccc(C)c(C(C)C)c1`, the “% Inhibition” value is listed as -21% and the Z score is 2.7.
For the molecule `CC(C)C(=O)N1CCc2ccc(OCc3ccc(C(=O)NCC4CC4)o3)cc2[C@@H]1c1cccc(F)c1`, the “% Inhibition” value is 11% and the Z score was -1.63.
Turning to `O=C(OCCN1CCOC1=O)c1ccc2c(c1)CCC2`, the “% Inhibition” value stood at 34% and the Z score is -3.44.
On to `COc1c2c(c(Br)c3c1[C@H](CC(=O)NC1CCCC1)N(C)CC3)OCO2`, for which the “% Inhibition” value was -11% and the Z score is recorded as 2.01.
`Cc1cnc(C)c(NCc2ncccc2F)n1`: the “% Inhibition” value was determined as 3% and the Z score is listed as -0.32.
As for `O=C(CCN1CCOC(C2CCCO2)C1)c1ccc(F)cc1` (stereo not drawn), the “% Inhibition” value is -6% and the Z score stood at 0.54.
For the molecule `CCc1noc(CN(CCC(C)C)C2CC2)n1`, the “% Inhibition” value is on record as 1% and the Z score is reported as -0.17.
`Cc1nccn1C[C@@H](C)CNC(=O)c1nccc2c(S(N)(=O)=O)cccc12`: the “% Inhibition” value is -11% and the Z score amounted to 1.5.
Consider `Cc1ccoc1C(=O)N1CCC([C@]2(Cc3cccc(F)c3)NC(=O)N(CCN(C)C)C2=O)CC1`, for which the “% Inhibition” value was 7% and the Z score is on record as -1.26.
On to `FC1=CCCN(Cc2cc3ccccc3nc2N2CCCCC2)C1`, for which the “% Inhibition” value is -11% and the Z score is listed as 1.13.
For `O=C(NCC1(O)CCCCC1)c1cccc(-c2ccc3nc[nH]c3c2)c1` the same measures were -7% and 0.85.
In the case of `c1ncn(CCN2CCOC[C@@]23CCOC3)n1`, the “% Inhibition” value is listed as -12% and the Z score is 1.9.
Consider `C[C@@H]1Oc2ccc(NS(=O)(=O)c3ccc(F)cc3)cc2CN(Cc2cccc(C(F)(F)F)c2)C1=O`, for which the “% Inhibition” value was 13% and the Z score is listed as -1.64.
Turning to `Cc1cccc(NC(=O)N[C@@H](C)CS(C)(=O)=O)c1Br`, the “% Inhibition” value is listed as -8% and the Z score is given as 1.54.
As to `O=C(N[C@@H]1CN(Cc2ccccn2)CCC[C@H]1O)c1ccc(OCc2ccccc2)cc1`, the “% Inhibition” value was 59% and the Z score is on record as -6.9.
